Data published in US20260137759A1 (IMMUNITYBIO, published 2026).

Target: T1, TGFβ Receptor II/IL-15RαSu fusion protein (human)
T1 construct: also called TGFβR/IL-15RαSu; TGFR/IL15RαSu
T1 chain: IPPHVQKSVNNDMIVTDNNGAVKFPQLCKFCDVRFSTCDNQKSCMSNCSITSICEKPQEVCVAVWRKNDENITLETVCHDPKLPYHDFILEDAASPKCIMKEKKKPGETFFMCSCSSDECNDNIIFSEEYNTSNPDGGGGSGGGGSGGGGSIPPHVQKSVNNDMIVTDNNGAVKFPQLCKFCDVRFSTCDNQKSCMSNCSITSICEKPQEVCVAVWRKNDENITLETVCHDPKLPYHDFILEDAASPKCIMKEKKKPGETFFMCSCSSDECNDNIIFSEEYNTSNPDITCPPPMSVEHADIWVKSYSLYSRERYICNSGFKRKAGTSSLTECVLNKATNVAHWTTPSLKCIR
Experiment: co-expression in CHO-K1 cells, complex formation

B1: TGFR/TF/IL15D8N fusion protein (other)
chain: IPPHVQKSVNNDMIVTDNNGAVKFPQLCKFCDVRFSTCDNQKSCMSNCSITSICEKPQEVCVAVWRKNDENITLETVCHDPKLPYHDFILEDAASPKCIMKEKKKPGETFFMCSCSSDECNDNIIFSEEYNTSNPDGGGGSGGGGSGGGGSIPPHVQKSVNNDMIVTDNNGAVKFPQLCKFCDVRFSTCDNQKSCMSNCSITSICEKPQEVCVAVWRKNDENITLETVCHDPKLPYHDFILEDAASPKCIMKEKKKPGETFFMCSCSSDECNDNIIFSEEYNTSNPDSGTTNTVAAYNLTWKSTNFKTILEWEPKPVNQVYTVQISTKSGDWKSKCFYTTDTECDLTDEIVKDVKQTYLARVFSYPAGNVESTGSAGEPLYENSPEFTPYLETNLGQPTIQSFEQVGTKVNVTVEDERTLVRRNNTFLSLRDVFGKDLIYTLYYWKSSSSGKKTAKTNTNEFLIDVDKGENYCFSVQAVIPSRTVNRKSTDSPVECMGQEKGEFRE[letters of about 120 residues with changes not shown]
notes: First chain of TGFRt15*-TGFRs (HCW9228)
**Q.** Does B1 bind?
**A.** binds
